# Laboratory results: PubChem BioAssay AID1963576 (National Center for Advancing Translational Sciences (NCATS), 2024)
# Hit rate of the full screen: of about 46,000 compounds, about 60 (0.1%) were called active. Inconclusive results (about 3%) are left out. Calls follow the shape of the dose curve; as a rule, active = well fitted inhibition curve with a large enough effect; inconclusive = small, poorly fitted or top-dose-only effect; inactive = no such curve, though single readings can be large or run the other way. The list shows a part of the results.
# Experiment: Primary qHTS assay for Inhibitors of ovarian cancer metastasis using an organotypic tumor microenvironment (TME) model. Also: nearly all actives have a fitted effect of over 65% in size.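 As to activity change, negative = inhibition: plate controls were DMSO wells for no effect and tomatine positive control wells for full effect.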
# Conditions: SKOV3ip1-GFP adhesion/invasion on 3D omental model, fluorescence; series mostly up to 45.8 µM; activity change, negative = inhibition: at the top concentration
# Procedure, shortened: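 Primary human omental fibroblast/mesothelial 3D culture pre-formed 48 h. SKOV3ip1-GFP cells added with compounds (0.36-46 umol/L), incubated 2 h RT/16 h 37 C, fixed; GFP cells quantified at 488/509 nm.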
Structure (SMILES),"activity change, negative = inhibition",outcome
COc1ccccc1NC(=O)CSc1nc(-c2ccc(C)cc2)nc2c1Cc1c(CO)cnc(C)c1O2,inactive: 3.37%,
CCOC(=O)c1c(S(=O)(=O)NCC(=O)N2CCN(c3cc(C)ccc3C)CC2)c(C)n(C)c1C,inactive: 1.16%,
Cc1cccc(NC(=O)CCN2CCN(c3ccccc3F)CC2)c1,inactive: 14.7%,
Cc1ccc(Cl)cc1NC(=O)CN1C(=O)CSc2ccc(S(=O)(=O)N3CCCC3)cc21,inactive: -12.3%,
CCOCCc1nn2c(=O)cc(COC(=O)Cc3ccccc3)nc2s1,inactive: 11%,
CSCC[C@@H](C(=O)Nc1cccc(F)c1)N1Cc2ccccc2C1=O,inactive: 22.8%,
O=C(CSc1nccn1C1CCCC1)Nc1cccc(F)c1,,inactive
COc1ccc(CCNC(=O)c2nc(SCc3ccccc3F)ncc2Cl)cc1OC,,inactive
CCOC(=O)C1CCN(c2c(C(=O)c3ccc(OC)cc3)cnc3ccccc23)CC1,,inactive
CCCN(C(=O)Cn1ncc2c1-c1ccccc1OC2)c1cccc(C)c1,inactive: 0.637%,
Cc1cccc(C)c1NC(=O)Cn1c(=O)n(CCCS(=O)(=O)C2CCCCC2)c(=O)c2ccccc21,,inactive
CCc1ccc(-c2nc(SCC(=O)NCC3CCCO3)c(-c3ccc(C)cc3)[nH]2)cc1 (configuration not stated),inactive: 11.9%,
Cc1cccc(N2CCN(c3ccc(C(=O)O)cc3NC(=O)c3cccc(Cl)c3)CC2C)c1 (configuration not stated),inactive: 3.28%,
Cc1cc(C)cc(-n2c(C)cc(C(=O)C(=O)Nc3nnc(C)s3)c2C)c1,inactive: 9.16%,
CN(C(=O)Cn1cnc2onc(-c3ccc(F)cc3)c2c1=O)c1ccccc1Cl,inactive: -3.46%,
Cc1ccc(-n2c(=O)c3ccc(C(=O)NCc4ccco4)cc3n(CC(=O)Nc3ccccc3C(F)(F)F)c2=O)cc1,,inactive
O=C(Nc1cc2c(cc1C(=O)c1cccc(Br)c1)OCCO2)c1ccccc1F,inactive: 34.2%,
O=C(Cn1c(=O)oc2cc(S(=O)(=O)N3CCCCCC3)ccc21)Nc1ccc(F)cc1F,,inactive
CN(c1ccccc1)S(=O)(=O)c1nnc(NC(=O)COc2ccccc2)s1,inactive: -1.33%,
CCOC(=O)c1cc2c(=O)n3ccccc3nc2n(Cc2ccco2)c1=NC(=O)c1ccc(C)c(C)c1,inactive: -5.64%,
CCOc1ccc(C(=O)NCc2nc3cccnc3n2Cc2cccc(OC)c2)cc1,inactive: 15.3%,

Structure (SMILES),"activity change, negative = inhibition",outcome
CCCN(CCC)C(=O)Cn1c(SCc2cccc(C(F)(F)F)c2)nc2cccnc21,inactive: -13.4%,
O=C(NC1(C(F)(F)F)C(=O)Nc2c1c(=O)[nH]c(=O)n2-c1ccccc1)c1ccccc1 (configuration not stated),inactive: 3.25%,
CCOc1ccccc1CNC(=O)c1ccc(NC(=O)N2CC(C)Sc3ccccc32)cc1 (configuration not stated),inactive: 1.86%,
Cc1cccc(NC(=O)N2CCN(C)c3ncccc32)c1C,,inactive
COc1ccc(OC)c(CNC(=O)CN(c2ccc(C)cc2)S(=O)(=O)N(C)C)c1,inactive: 8%,
N#Cc1ccccc1NC(=O)C(=O)NCCc1csc2nc(-c3cccc(F)c3)nn12,,inactive
CC(=O)c1ccc(NC(=O)CN2C(=O)CCc3ccccc32)cc1,inactive: -5.93%,
CC1CCC(Nc2nc3c(-c4ccc(Cl)cc4)nnn3c3ccccc23)CC1 (configuration not stated),,inactive
Cc1ccc(Cn2cc(CCC(=O)NC3CCC(C)CC3)c3ccccc32)cc1 (configuration not stated),inactive: 10.5%,
O=C(CSc1oc(-c2ccccc2)nc1S(=O)(=O)c1ccc(Cl)cc1)Nc1ccc(F)cc1,inactive: -11.3%,
CCOC(=O)c1cccc(NC(=O)NCc2cccn2Cc2ccccc2)c1,inactive: 0.642%,
Cc1ccc2occ(CC(=O)N(Cc3ccccc3Cl)C3CCS(=O)(=O)C3)c2c1 (configuration not stated),inactive: 0.643%,
COc1ccccc1CNS(=O)(=O)c1ccc2c(c1)NC(=O)C(C)C(=O)N2 (configuration not stated),,inactive
Cn1c(=O)oc2cc(S(=O)(=O)N3CCCC(C(=O)NCCc4ccc(Cl)cc4)C3)ccc21 (configuration not stated),inactive: 44.9%,
CC(=O)Nc1ccc(/C=C/c2nc(-c3ccccc3O)n(-c3ccccc3)n2)cc1,,inactive
CCCCSc1nc(-c2ccc(OC)cc2)ccc1C#N,inactive: 3.49%,
Cc1ccc(-c2nc(-c3cc4c([nH]c3=O)CC(C)(C)CC4=O)sc2C)cc1,inactive: -3.12%,
COC(=O)c1ccccc1NC(=O)Cn1c(CCC(=O)O)ccc1-c1cccs1,inactive: 13.1%,
O=C(NCc1ccccc1)c1cc2sccc2n1Cc1ccc(Cl)cc1,,inactive
Cc1cccc(-c2nc(C)c(CCNC(=O)C(=O)Nc3cccc(Cl)c3C)s2)c1,inactive: 2.91%,
O=C(Cn1cc(SCc2ccc(C(F)(F)F)cc2)c2ccccc21)N1CCOCC1,inactive: 2.95%,

Structure (SMILES),"activity change, negative = inhibition",outcome
O=C1CCC(N2C(=O)c3ccccc3C2=O)C(=O)N1 (configuration not stated),inactive: -11.6%,
COC(=O)CSc1ncc2c(n1)-c1ccccc1N(Cc1ccccc1C)S2(=O)=O,inactive: 4.28%,
CCOc1ccc(N(C)C(=O)CS(=O)(=O)c2cccc3nsnc23)cc1,,inactive
CC(C)Oc1ccc(CNC(=O)CCCN2C(=O)CCn3nc(-c4cccn4C)cc32)cc1,inactive: 3.62%,
COc1ccccc1N1CCN(C(=O)C(CCSC)NS(=O)(=O)c2ccc3c(c2)oc(=O)n3C)CC1 (configuration not stated),inactive: 1.36%,
COc1ccc2nc3oc(C(=O)N4CCN(c5cc(C)ccc5C)CC4)cc3cc2c1,inactive: -13.3%,
CCC(=O)N1CCc2cc(S(=O)(=O)CCC(=O)Nc3ccc(OC(F)(F)F)cc3)ccc21,inactive: 10.4%,
CCC(=O)N1c2ccccc2CC1C(=O)N1CCN(c2cccc(Cl)c2)CC1 (configuration not stated),,inactive
CCc1ccc(NCc2cc3ccc(OC)cc3n(CC(=O)Nc3ccc(F)cc3F)c2=O)cc1,,inactive
Cc1nn(-c2ccccc2)c2c1N(CCCC(=O)NCc1ccc(N(C)C)cc1)C(=O)CS2,,inactive
O=C(c1ccco1)n1nc(-c2ccccc2)nc1NCc1ccc(Cl)cc1,,inactive
O=C(Nc1ccc(F)cc1)N1CCN(c2ccccc2F)CC1,inactive: 9.58%,
COc1cccc(CNS(=O)(=O)c2ccc3c(c2)CCN3C(=O)C2CCC2)c1,inactive: -6.28%,
COc1cccc(CNCCSc2nnnn2C)c1OCc1ccccc1Cl,,inactive
Cc1nn2c(=O)cc(COC(=O)c3ccco3)nc2s1,,inactive
O=C(Nc1c(C(=O)N2CCN(c3ccccc3)CC2)oc2ccccc12)c1ccc(Br)o1,inactive: -1.49%,
O=C(NCc1cccs1)c1ccc(Cn2c(SCc3ccccc3)nc3cccnc32)cc1,inactive: -22.3%,
Cc1cc(Cl)ccc1OCC(=O)Nc1c(Cl)ccc2nsnc12,,inactive
COc1ccc(Cn2c(SCC(=O)NCc3ccc(Cl)cc3)nc3ccsc3c2=O)cc1,inactive: 9.2%,
CCOC(=O)c1ccc(-n2c(CCC(=O)O)ccc2-c2ccc(Br)cc2)cc1,inactive: -3.58%,
